The campaign covered roughly 280,000 compounds. About 1,100 (0.39%) were called active. The inconclusive results got no clear call from the source; some entries with a clear call stand among them for comparison. Calls follow the shape of the dose curve; as a rule, active = well fitted inhibition curve with a large enough effect; inconclusive = small, poorly fitted or top-dose-only effect, or effect the other way; inactive = flat fitted curve, though single readings scatter. No potency is given beside an inconclusive call; the fits are too rough.
What follows are compounds tested against Microtubule-associated protein tau (Homo sapiens) (UniProt P10636) (assay: qHTS for Inhibitors of Tau Fibril Formation, Fluorescence Polarization). Details: K18 P301L tau heparin fibrillization, Alexa594 FP, 6 h; series mostly up to 57.7 µM.
Sequence of UniProt P10636 (P10636 whole entry, looked up): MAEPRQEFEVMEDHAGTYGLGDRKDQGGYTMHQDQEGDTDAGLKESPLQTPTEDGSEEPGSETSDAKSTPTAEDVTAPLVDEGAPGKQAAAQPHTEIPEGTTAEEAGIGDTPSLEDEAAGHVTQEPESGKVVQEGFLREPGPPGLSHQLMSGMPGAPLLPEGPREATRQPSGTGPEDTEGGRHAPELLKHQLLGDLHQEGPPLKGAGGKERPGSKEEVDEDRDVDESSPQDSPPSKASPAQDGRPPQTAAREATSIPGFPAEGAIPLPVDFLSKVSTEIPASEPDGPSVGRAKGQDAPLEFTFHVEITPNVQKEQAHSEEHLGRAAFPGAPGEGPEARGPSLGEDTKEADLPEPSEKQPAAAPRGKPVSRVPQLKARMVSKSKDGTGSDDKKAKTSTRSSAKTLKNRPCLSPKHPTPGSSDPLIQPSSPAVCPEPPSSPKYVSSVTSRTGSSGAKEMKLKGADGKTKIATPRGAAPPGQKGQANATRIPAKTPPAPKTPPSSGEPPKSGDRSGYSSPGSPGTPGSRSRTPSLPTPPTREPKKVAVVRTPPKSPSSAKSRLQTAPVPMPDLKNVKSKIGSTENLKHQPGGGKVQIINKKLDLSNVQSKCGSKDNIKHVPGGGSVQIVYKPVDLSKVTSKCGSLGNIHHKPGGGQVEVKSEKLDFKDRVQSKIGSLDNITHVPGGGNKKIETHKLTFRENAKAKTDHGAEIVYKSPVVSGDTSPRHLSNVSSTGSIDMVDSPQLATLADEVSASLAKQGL
Outline: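 Quantitative HTS format: compounds meet 15 uM recombinant K18 P301L tau and Alexa 594-tau tracer in 100 mM sodium acetate pH 7; 20 uM heparin triggers fibrillization at 37 C over 6 hr; FP gives the signal.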
`CSc1nsc(SCC(=O)Nc2nc3ccc(C)cc3s2)n1` was tested, and the Potency was inconclusive [inhibitor, partial curve].
For `O=C(NC(=S)Nc1nc(-c2cccc3ccccc23)cs1)c1cc2ccccc2o1`, the Potency was inconclusive [inhibitor, partial curve].
With `CCCN(CCC)c1nc(N(CCC)CCC)[nH]c(=O)n1` the Potency was inconclusive [inhibitor, single point].
For `Cc1cc2cc(C=C(C#N)C#N)c(Cl)nc2cc1C`, the Potency was inconclusive [inhibitor, full curve, poor fit].
For `CCc1nnc(NS(=O)(=O)c2ccc(N/C=C\C(=O)c3ccc4ccccc4c3)cc2)s1`, the Potency was “inactive”.
With `Cc1ccc(S(=O)(=O)CC(=O)Nc2sc3c(c2C#N)CCCCC3)cc1` the Potency was inconclusive [inhibitor, partial curve, poor fit].
For `Cc1ccc(S(=O)(=O)Nc2cc(=O)[nH]c(SCc3ccc(Cl)cc3)n2)cc1`, the Potency was inconclusive [inhibitor, partial curve, poor fit].
With `COc1ccc(C(=O)NC(=S)Nc2ccc([N+](=O)[O-])cc2C)cc1OC` the Potency was “inactive”.
`O=C(O)CCCNC(=O)/C=C/c1ccco1` was tested, and the Potency was inconclusive [inhibitor, partial curve].
In the case of `CCCOc1ccc(-c2nn(-c3ccccc3)cc2C2NC(=O)NC(C)=C2C(=O)OC)cc1C` (stereo unspecified), the Potency is reported as inconclusive [inhibitor, single point].
In the case of `CCOc1ccc(NC(=O)Nc2ccc3nccnc3c2)cc1`, the Potency is reported as inconclusive [activator, partial curve, poor fit].
With `COc1ccc(C2C(C(=O)/C=C/c3ccco3)=C(O)C(=O)N2CCN2CCOCC2)cc1OC` (stereo unspecified) the Potency was inconclusive [inhibitor, single point].
For `O=C1Nc2ccc(S(=O)(=O)Nc3ccccc3O)c3cccc1c23`, the Potency was “inactive”.
In the case of `COc1cc(Cl)c(C)cc1NC(=O)CSc1ncc(S(=O)(=O)c2ccc(C(C)(C)C)cc2)c(=O)[nH]1`, the Potency is reported as inconclusive [inhibitor, single point].
For `CC(=O)C(C(C)=O)c1c(Cl)c(O)c(O)c2c(C(=O)c3ccccc3)coc12`, the Potency was inconclusive [inhibitor, partial curve].
With `COc1cc(NC(=O)Cn2ncc3c([nH]c4ccc(C)cc43)c2=O)cc(OC)c1OC` the Potency was “inactive”.
With `COc1cc(C(=O)Nc2ccc3oc(-c4ccccc4)nc3c2)cc(OC)c1OC` the Potency was inconclusive [inhibitor, full curve].
In the case of `OCCN(/C=N/c1nc(-c2ccc(Br)cc2)cs1)CCO`, the Potency is reported as inconclusive [inhibitor, single point].
`CCOc1ccc(NC(=S)N2c3ccccc3CC2C)cc1` (stereo unspecified) was tested, and the Potency was “inactive”.
In the case of `Cc1nnc2sc(SCC(=O)Nc3nccs3)nn2c1=O`, the Potency is reported as inconclusive [inhibitor, partial curve].
With `COc1ccc(-c2nc(SCC(=O)Nc3ccc4c(c3)OCO4)c(-c3ccc(OC)cc3)[nH]2)cc1` the Potency was “inactive”.
In the case of `O=C(NCc1cccnc1)c1cccn1-c1ncc(C(F)(F)F)cc1Cl`, the Potency is reported as “inactive”.
For `COc1ccc(NCc2cc3cc4c(cc3n(CC(=O)Nc3ccc(C)cc3)c2=O)OCO4)cc1`, the Potency was inconclusive [activator, full curve].
With `CC(=O)Oc1ccc(C(=O)Nc2cc(NC(=O)c3ccc(OC(C)=O)cc3)cc(C(=O)NC(C)(C)C)c2)cc1` the Potency was inconclusive [inhibitor, single point].
`CCOC(=O)c1ccc(N2CSC3=C(C#N)C(c4cccs4)CC(=O)N3C2)cc1` (stereo unspecified) was tested, and the Potency was inconclusive [inhibitor, single point].
For `COc1cccc(-n2ccnc2SCC(=O)Nc2ccccc2)c1`, the Potency was inconclusive [inhibitor, full curve, poor fit].
For `O=C(/C=C/Sc1ccccc1)c1ccccc1`, the Potency was inconclusive [inhibitor, full curve, poor fit].
`O=C(Cc1ccccc1)Nc1sc2c(c1C(=O)Nc1ccc(Cl)cc1)CCCC2` was tested, and the Potency was inconclusive [inhibitor, partial curve].
For `COc1ccccc1Nc1nc(NCc2ccco2)nc(N)c1[N+](=O)[O-]`, the Potency was inconclusive [inhibitor, partial curve].
With `CCOc1ccc(NC(=O)c2ccc(-c3nc(COc4ccccc4)c(C)o3)cc2)cc1` the Potency was “inactive”.
For `COc1ccc(-c2[nH]nc3c2C(c2ccc(OC(=O)N4CCOCC4)cc2)C(C#N)=C(N)O3)cc1` (stereo unspecified), the Potency was inconclusive [inhibitor, single point].
For `COc1cccc(OCCNC(=O)c2ccccc2Sc2ccccc2C#N)c1`, the Potency was “inactive”.
For `CC1=CN2C(=N)/C(=C/c3ccc([N+](=O)[O-])o3)C(=O)N=C2S1`, the Potency was inconclusive [inhibitor, partial curve].
With `COc1cccc(NC(=S)N2CCc3cc(OC)c(OC)cc3C2)c1` the Potency was inconclusive [inhibitor, single point].
With `Cc1ccc(C)c(OCCn2c(CCNC(=O)C3CCCCC3)nc3ccccc32)c1` the Potency was inconclusive [activator, single point].
`Cc1cccc(NC(=O)c2ccc(S(=O)(=O)C(F)F)cc2)c1C` was tested, and the Potency was “inactive”.
In the case of `Nc1nc(F)cc(N2CCCCCC2)n1`, the Potency is reported as “inactive”.
`CN(c1ccccc1)S(=O)(=O)c1ccc(Cl)nc1` was tested, and the Potency was “inactive”.
For `CNC(=S)N1N=C(c2ccccc2)CC1c1ccccc1Cl` (stereo unspecified), the Potency was inconclusive [inhibitor, single point].
`Cc1nnc(NC(=O)CSc2nc(C(C)C)nc3ccccc23)s1` was tested, and the Potency was inconclusive [inhibitor, single point].
For `O=C(NC(=O)N1CCSCC1)c1c(Cl)cccc1Cl`, the Potency was inconclusive [inhibitor, single point].
In the case of `O=C1C(Cl)=C(NCCN2CCOCC2)C(=O)c2ncccc21`, the Potency is reported as inconclusive [inhibitor, partial curve].
In the case of `CC1(OC(=O)CCc2ccccc2)C(=O)C=C2C=C(c3ccc(C#N)cc3)N(Cc3ccccc3)C=C2C1=O` (stereo unspecified), the Potency is reported as inconclusive [inhibitor, partial curve] and the activity, negative = inhibition is reported as inactive: 2.8% [at 11.6 µM].
For `COc1ccc(-c2cc(-c3nnc(-c4ccncc4)o3)c3ccccc3n2)cc1`, the Potency was inconclusive [inhibitor, full curve].
With `NC(=O)COC(=O)c1ccccc1Nc1ccc(SC(F)F)cc1` the Potency was inconclusive [inhibitor, single point].
In the case of `CCOC(=O)c1ccc2c(c1)N(Cc1ccc(F)cc1Cl)C(=O)c1ccccc1S2(=O)=O`, the Potency is reported as inconclusive [inhibitor, partial curve].
In the case of `[O-]/C(=C(\C(=S)Nc1cccc2ccccc12)[n+]1cccc(CO)c1)c1ccc(Cl)s1`, the Potency is reported as inconclusive [inhibitor, partial curve].
For `Cc1ccc(Cl)cc1NC(=O)Cn1c(=O)n(CCC(=O)NCc2ccc3c(c2)OCO3)c(=O)c2sccc21`, the Potency was inconclusive [inhibitor, single point].
For `Oc1cccc(-c2nc3c4c(ncn3n2)-c2ccccc2CC42CCCC2)c1`, the Potency was inconclusive [inhibitor, single point].
For `CCC1CO/C(=C(\C(Cl)=C(Cl)Cl)[N+](=O)[O-])N1` (stereo unspecified), the Potency was inconclusive [inhibitor, partial curve].
In the case of `CCC(=Nc1ccc(N)cc1)C1=C(O)C(C(=O)OC)C(C)(C)CC1=O` (stereo unspecified), the Potency is reported as active: 14.1 µM.
For `CC(=O)Nc1c(O)nc(SCC(=O)Nc2nnc(SCc3ccccc3)s2)[nH]c1=O`, the Potency was inconclusive [inhibitor, single point].
`C=CCN(C(=O)CSc1nc2c(sc3ccccc32)c(=O)n1CCN(CC)CC)c1ccccc1` was tested, and the Potency was inconclusive [inhibitor, single point].
`Cc1cc(C)n(/N=C\c2c(O)ccc3ccccc23)c(=O)c1C(N)=O` was tested, and the Potency was “inactive”.
In the case of `Cc1ccc(OCc2ccc(-c3nc(C#N)c(NCc4cccnc4)o3)o2)cc1`, the Potency is reported as inconclusive [activator, single point].
For `COC(=O)Cc1ccc(NC(=S)NCCSc2ccc(Cl)cc2)cc1`, the Potency was inconclusive [inhibitor, partial curve].
For `CCCn1c(O)c(N=Nc2ccc3ccccc3n2)c2ccccc21`, the Potency was “inactive”.
`COc1ccccc1Nc1nc(N)nc(CSC(=S)N2CCCCC2C)n1` (stereo unspecified) was tested, and the Potency was inconclusive [inhibitor, single point].
For `Cc1cc(-c2ccco2)n(-c2ccccc2)n1`, the Potency was inconclusive [inhibitor, partial curve].
In the case of `O=C(Nc1ccccc1)Nc1cccc(-c2cn3cccnc3n2)c1`, the Potency is reported as inconclusive [inhibitor, partial curve].
With `COc1ccc(-n2c(Cc3cccs3)nnc2SCC(=O)Nc2ccc3c(c2)OCCO3)cc1` the Potency was “inactive”.
For `CCOc1cc(/C=N/NC(N)=S)cc(Br)c1OCc1ccccc1C`, the Potency was inconclusive [inhibitor, full curve, poor fit].
For `CCCCN(c1ccccc1)c1ncnc2nc[nH]c12`, the Potency was “inactive”.
`Cc1ccc(Cl)cc1NC(=O)Cn1c(=O)oc2cc(S(=O)(=O)N3CCCC3)ccc21` was tested, and the Potency was inconclusive [inhibitor, full curve, poor fit].
With `Cc1ccc2c(CC(=O)Nc3ccc(S(=O)(=O)N4CCCCC4)cc3)coc2c1` the Potency was inconclusive [inhibitor, partial curve].

From PubChem BioAssay AID1468 (National Center for Advancing Translational Sciences (NCATS), 2008)
% is scaled to controls: 0 for no effect and ±100 for the full control effect; potency is read from the fitted curve at half-maximal effect; tags tell the direction and shape of the fitted curve.
Also: nearly all actives have a fitted effect of over 55% in size.
